The whole screen tested about 340,000 compounds, of which about 6,900 (2%) were called active. Cut-off read from the data, not from the text of the source: active = inhibition above about 30%; inactive = below that, where a call was filed. The list shows a part of the results, in another mix than the full data. Entries without a call were filed so in the source.
biological target: D(2) dopamine receptor (Homo sapiens) (UniProt P14416); experiment: HTS Assay for Allosteric Antagonists of the Human D2 Dopamine Receptor: Primary Screen for Antagonists; details: HEK293 TREx D2 cells, calcium flux, dopamine EC80; at 10 µM; stronger effect = higher value; note: 0% is about no effect
Sequence of UniProt P14416 (P14416 whole entry, looked up): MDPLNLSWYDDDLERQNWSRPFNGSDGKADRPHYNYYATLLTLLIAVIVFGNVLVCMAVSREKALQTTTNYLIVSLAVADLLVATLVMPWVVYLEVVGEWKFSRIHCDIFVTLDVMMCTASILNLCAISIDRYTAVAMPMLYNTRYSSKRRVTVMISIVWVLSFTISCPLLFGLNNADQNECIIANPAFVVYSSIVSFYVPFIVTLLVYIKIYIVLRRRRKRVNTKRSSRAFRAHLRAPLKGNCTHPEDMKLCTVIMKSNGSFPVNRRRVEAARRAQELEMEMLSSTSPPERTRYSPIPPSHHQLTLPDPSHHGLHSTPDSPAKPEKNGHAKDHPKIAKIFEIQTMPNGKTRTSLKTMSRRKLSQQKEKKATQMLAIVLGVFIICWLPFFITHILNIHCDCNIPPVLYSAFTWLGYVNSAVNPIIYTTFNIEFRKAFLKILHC
In short: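 In this primary screen, negative modulation is detected by tracking calcium flux after an EC80 dopamine challenge in inducible HEK293 T-REx D2 cells preexposed to test compound for 180 s.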

Row | Compound | inhibition
1 | CCOC(=O)c1c(C)[nH]c(C)c1S(=O)(=O)N1CCCC(C(=O)NCc2ccc(Cl)cc2)C1 (stereo not drawn) | 2.38%
2 | COc1ccccc1Nc1cc(C(=O)NC2CCC(C)CC2)c2ccccc2n1 (stereo not drawn) | 22.3%
3 | Cc1oc(-c2ccc(Cl)cc2)nc1CSc1nc2ncccc2[nH]1 | 0.836%
4 | O=C(Nc1ccc2oc(-c3ccncc3)nc2c1)c1ccccc1Cl | -12%
5 | CCc1ccccc1Nc1nn2c(=O)c3ccc(C(=O)NCCCOC(C)C)cc3nc2s1 | -11.3%
6 | COc1cccc(NC(=O)c2ccc(-c3nc(COc4ccccc4)c(C)o3)cc2)c1 | 1.55%
7 | CCOc1ccc(NC(=O)CC2C(=O)N(c3ccc(Cl)cc3)C(=O)N2Cc2cccs2)cc1 (stereo not drawn) | 1.89%
8 | O=C(OCc1cc(=O)n2nc(C3CCCCC3)sc2n1)c1ccc(F)cc1 | -5.98%
9 | CCOc1ccc(-n2cc(-c3ccccc3)c3c(N4CCN(c5ccccc5OC)CC4)ncnc32)cc1 | 3.66%
10 | CCOc1ccc(NC(=O)c2sc3nc4c(c(-c5ccc(OC)cc5)c3c2N)C(=O)CC(C)(C)C4)cc1 | -2.08%
11 | COC(=O)c1c(NC(=O)/C(C#N)=C/c2ccccc2)sc2c1CCC2 | -7.09%
12 | O=C(Nc1cccc(Cl)c1)c1ccc2c(c1)CCN2S(=O)(=O)c1ccccc1 | -14.6%
13 | CCCCN(CC)C(=O)CSc1c2c(nc3ccc(Cl)cc13)CCCC2 | -4.13%
14 | Cc1cccc(NC(=O)Cn2cc(C(=O)c3ccco3)c3ccccc32)c1 | -3.9%
15 | Cc1ccc(CNC(=O)c2ccc(Cn3c(=O)c4ccccc4n(CC(=O)Nc4ccc(C)cc4)c3=O)cc2)cc1 | 0.496%
16 | Cc1ccccc1OCCn1c(-c2ccc(Cl)cc2)nc2ccccc2c1=O | 5.43%
17 | O=C(NC1(C(F)(F)F)C(=O)Nc2c1c(=O)[nH]c(=O)n2-c1ccc(Cl)cc1)c1ccccc1F (stereo not drawn) | 11.1%
18 | COc1ccc(Cn2cc(S(=O)(=O)c3ccc(Cl)cc3)c(=O)c3cc4c(cc32)OCO4)cc1 | 9.79%
19 | COc1cc(OC)c(NC(=O)CCc2c(C)nc3ncnn3c2C)cc1Cl | 9.43%
20 | COc1ccc(-c2nc(CSCC(=O)NCCc3ccccc3)c(C)o2)cc1 | -24.6%
21 | COc1ccc(C(NC(=O)CNC(C)=O)C(=O)Nc2ccc(C(C)C)cc2)cc1 (stereo not drawn) | active: 36.7%
22 | COc1cccc(N2CCN(C(=O)c3cc4cc5cc(C)ccc5nc4s3)CC2)c1 | 14.5%
23 | CN(Cc1ccccc1)c1ccc(-c2nc(-c3ccccn3)no2)cc1[N+](=O)[O-] | -1.04%
24 | O=C(c1ccc(F)cc1)C1CCN(Cc2cn[nH]c2-c2ccccc2)CC1 | active: 56%

Row | Compound | inhibition
25 | Cc1cccc(NC(=O)CCn2cnnn2)c1C | -11.6%
26 | CCC(=O)N1c2ccccc2CC1C(=O)NCc1ccccc1Cl (stereo not drawn) | -7.17%
27 | O=C(CSCc1ccc(F)cc1)N1CCN(c2ccc(Cl)cc2)CC1 | -1.11%
28 | Cc1ccccc1N1CCN(CCCCN2C(=O)C3CCCN3C2=O)CC1 (stereo not drawn) | active: 58.9%
29 | Clc1ccc(CN2CCC(CNc3ncnc4onc(-c5ccc(Cl)cc5)c34)CC2)cc1 | -6.49%
30 | O=C(Cn1c(=O)n(-c2cccc(Cl)c2)c(=O)c2sc3ccccc3c21)NC1CCCCC1 | 0.898%
31 | COc1ccc2cc(-c3nc(Cl)c4c5c(sc4n3)CC(C)CC5)c(=O)oc2c1 (stereo not drawn) | 2.54%
32 | Cc1ccc(OCC(=O)Nc2cccc(-c3nc4ccccc4o3)c2C)cc1C | 12.4%
33 | CNC(=O)C1CCC(Cn2c(=O)c3sccc3n(CC(=O)NCc3ccc(OC)cc3)c2=O)CC1 (stereo not drawn) | 0.248%
34 | COc1ccccc1NC(=O)c1c(NC(=O)COc2ccccc2)sc2c1CCCCC2 | -1.42%
35 | O=C(c1ccc2c(c1)N(Cc1ccccc1F)C(=O)c1ccccc1S2(=O)=O)N1CCN(c2ccccc2F)CC1 | 2.69%
36 | CCOc1ccc(C(=O)Nc2ccc3nn(-c4ccc(OC)c(Cl)c4)nc3c2)cc1 | -21.2%
37 | CCN(CC)C(=O)c1sc2c(c1C)c(=O)n(CCc1ccccc1)c(=O)n2Cc1ccc(F)cc1Cl | 14.3%
38 | Cc1cc2nc(-c3cccc(NC(=O)C(C)C)c3C)oc2cc1C | 6.73%
39 | CCc1c(C)nc(SCc2nc(-c3ccccc3)no2)[nH]c1=O | 1.74%
40 | O=C(c1cc(-c2ccccc2O)on1)N1CCCCC1 | -5.1%
41 | COc1cc(OC)c(OC)cc1/C=C/c1nc2cc3ccccc3cc2c(=O)n1-c1ccc(F)c(Cl)c1 | -14.6%
42 | O=C1Cc2cc(CCN3CCN(c4nsc5ccccc45)CC3)c(Cl)cc2N1 | active: 84.1%
43 | COc1ccccc1CNC(=O)N[C@@H](Cc1ccccc1)C(=O)O | active: 37%
44 | CCn1cc(S(=O)(=O)c2ccccc2)c(=O)c2cc(F)c(N3CCCC3)cc21 | 10.7%
45 | Cc1cc(C)cc(NS(=O)(=O)c2ccc3[nH]cc(C(=O)NC4CCCCC4)c(=O)c3c2)c1 | 2.67%
46 | OCCC1CN(Cc2cccc(-n3cccn3)c2)CCN1Cc1ccccc1 (stereo not drawn) | active: 57.8%
47 | O=C(O)CC(NC(=O)C12CC3CC(CC(C3)C1)C2)c1cc([N+](=O)[O-])ccc1Cl (stereo not drawn) | active: 72.3%
48 | Cc1ccc(Cl)cc1NC(=O)Cn1c(=O)n(Cc2ccccc2)c(=O)c2oc3ccccc3c21 | -1.21%

Row | Compound | inhibition
49 | Cc1ccc(OCC(=O)Nc2cccc(OCc3cc(=O)n4cccc(C)c4n3)c2)cc1C | 8.38%
50 | CCn1cc2c(n1)-c1c(oc(C(=O)Nc3cccc(C)c3C)c1C)CC2 | 11.3%
51 | Cc1ccc(CCNC(=O)CCCn2c(=O)c3ccccc3n(Cc3ccccc3C#N)c2=O)cc1 | -17.3%
52 | CN(C)S(=O)(=O)N1CCc2ccc(NC(=O)C3CCCO3)cc2C1 (stereo not drawn) | active: 31.3%
53 | N#Cc1c(C(F)(F)F)cc(-c2cccs2)nc1SCC(=O)Nc1ccccc1F | -2.13%
54 | Cc1cc(C)cc(NC(=O)CSc2oc(-c3ccccc3)nc2S(=O)(=O)c2ccccc2)c1 | -4.55%
55 | COc1ccc(NC(=O)NCCCN2CCc3ccccc3C2)cc1 | active: 42.9%
56 | Cc1cc(C)n(-c2nc3ccccc3nc2Nc2ccc(Cl)c(C(=O)OC(C)C)c2)n1 | 2.17%
57 | Cc1ccc(NC(=O)CCCn2c(=O)c3cccn3c3ccccc32)cc1C | -8.53%
58 | CC(C)CC(=O)n1nc(-c2cccnc2)nc1NCc1ccc(F)cc1 | -21.2%
59 | COc1cccc(-c2nnc(SCC(=O)N3CCC(C)CC3)o2)c1 | -10.9%
60 | O=C(OCc1cc(=O)n2nc(C3CCCCC3)sc2n1)c1ccccc1Cl | 0.0689%
61 | COc1ccc(CC(=O)NCc2ccc3c(c2)CCN3C(C)=O)cc1 | -14%
62 | COc1ccc(-c2nc(SCC(=O)Nc3ccc4c(c3)OCCO4)c(-c3ccc(F)cc3)[nH]2)cc1OC | -1.61%
63 | CC1=C(C(N)=O)C(c2ccc(F)cc2)n2nc(-c3ccccc3Cl)nc2N1 (stereo not drawn) | 0.982%
64 | CCC(CC)C(=O)Nc1ccc2nc(SCC(=O)N3CCc4ccccc43)sc2c1 | 8.12%
65 | Cc1ccc(CNC(=O)CN(c2cccc(C)c2C)S(=O)(=O)c2ccccc2)cc1 | -5.38%
66 | CCCCNc1ccc(-c2nc(-c3ccco3)no2)cc1[N+](=O)[O-] | -18.8%
67 | CCOC(=O)c1c(-c2ccc(C)cc2)csc1NC(=O)c1cc(-c2ccc(C)c(F)c2)on1 | 7.92%
68 | C/C(=N\NC(=O)c1c(Cl)c(C)nn1C)c1cccc(NC(=O)c2cccc(F)c2)c1 | active: 49.3%
69 | CCOc1ccc(C(=O)Nc2cccc(NC(=O)c3ccc(C(C)(C)C)cc3)c2)cc1Br | 2.1%
70 | CC(=O)c1cccc(NC(=O)C2CCCN(C(=O)c3cnn(-c4ccccc4)c3-n3cccc3)C2)c1 (stereo not drawn) | -4.99%
71 | Cc1cccc(N2CCN(S(=O)(=O)c3cc(Cl)ccc3Cl)CC2)c1C | -2.61%
72 | O=C(CN1C(=O)c2cccnc2Oc2ccc(Cl)cc21)NCCc1ccccc1 | 10%

Row | Compound | inhibition
73 | CCCCC(=O)NCc1ccc2c(c1)cc(C)n2C | active: 33.9%
74 | Cc1ccc(NC(=O)CN2C(=O)COc3ccc(S(=O)(=O)NC4CCCC4)cc32)cc1Cl | 1.33%
75 | CC(C)(C)C(=O)Cn1c(=O)n(-c2ccccc2)c(=O)c2c3c(sc21)CCC3 | -1.1%
76 | Cc1cc(NC(=O)CSc2ncc(C(=O)Nc3ccc(Cl)cc3)c(=O)n2C)no1 | -7.04%
77 | COc1ccc(S(=O)(=O)c2c(O)c3ccc(C(=O)NCc4ccc(Cl)cc4)cc3[nH]c2=O)cc1 | -5.58%
78 | CCOC(=O)C1CCN(C(=O)Cn2ncc3c4ccccc4n(Cc4ccc(F)cc4)c3c2=O)CC1 | -0.274%
79 | Cc1csc2nc(COc3ccc(NC(=O)COc4ccccc4)cc3)cc(=O)n12 | 5.5%
80 | O=C(NC1CCN(Cc2ccccc2)CC1)c1ccccc1OCc1ccccc1 | active: 85.6%
81 | Cc1ccc2oc3c(c(=O)c2c1)C(c1ccc([N+](=O)[O-])cc1)N(CCCN1CCOCC1)C3=O (stereo not drawn) | 7.74%
82 | CCN(Cc1ccccc1)C(=O)Cn1c(=O)n(-c2cccc(C)c2)c(=O)c2c1c1cc(C)ccc1n2C | 4.63%
83 | C=CCc1ccccc1OCc1nc2ccccc2n1CC | 12.3%
84 | COc1cc2[nH]c(=O)n(CCC(=O)N3CCN(c4ccc(Cl)cc4)CC3)c(=O)c2cc1OC | -15.9%
85 | CCn1nc(-c2ccccc2)c(-c2ccccc2)c(C(=O)Nc2ccccc2C#N)c1=O | -6.45%
86 | Cc1cc(C)c(/C=C/c2onc(C)c2S(=O)(=O)N2CCC(C(=O)NCc3ccccc3Cl)CC2)c(C)c1 | -28%
87 | Cc1cc(C)c2c(=O)cc(C(=O)Nc3c(C)n(C)n(-c4ccccc4)c3=O)oc2c1 | -8.7%
88 | O=C(CCC1N=C2c3ccccc3N=C(SCc3cccc(Cl)c3)N2C1=O)N1CCN(c2ccccc2)CC1 (stereo not drawn) | -1.17%
89 | COc1ccc(C(=O)c2c(N)c(-c3nc(-c4ccc(OC)cc4)cs3)c3ccccn23)cc1 | 11.3%
90 | COc1ccc(Br)cc1CNC(=O)c1ccc2c(c1)nc1n2CCC(C)C1 (stereo not drawn) | -1.25%
91 | O=C(Cn1ccn(-c2ccc(F)c(F)c2)c(=O)c1=O)NCCc1ccccc1 | -13.2%
92 | CC(=O)c1cccc(NC(=O)CCc2c(C)nc3c(c(C)nn3-c3ccccc3)c2C)c1 | -5.62%
93 | Cc1cc(C)cc(NC(=O)c2cc(S(=O)(=O)N3CCC(C)CC3)cn2C)c1 | 9.9%
